Whole data set: some 4,500 sequences, median “median log2 fold change of GCK-ALFA target abundance (FLAG IP / Myc IP barcode read proportion)” near 0.078, cut for the lowest 2% near -0.6. This is one part of the list.
B1: GBRAP_43_5758 (protein)
chain: SKELVEGALDFALLAAESPEISEETKVKAIIAAFRLAADEGYLDKELLKKVVEAAAKNLSAESLKKIADELEKLAKKYPELAEKFKEAAKKLREAIKKKE
B2: GBRAP_11_2675 (protein)
chain: KKEALKKAAELAKAAAAAVDALIAAGVTDAALQAAAGKLLEELKKLVEENADEASKKDVEVAVELWEKLKADPENAAEYAEQLRAALRVLEGNFLLEIEE
B3: GBRAP_128_3395 (protein)
chain: SEEEKLKEAFELIDEIINSDVEKAKELAKKLMELFGTMNKETREKVVEYIEEKLPKLTAEKLEVLADVLEEQRPKLDPYGQELANEMLVEALNEAEEKEE
B4: GBRAP_160_4218 (protein)
chain: MELVKKLVEIVREEFEEALELIEGESPEERRVILDVAVGNVILESMEIEGVTDEMEETVEEMSEELAEELLEAADESPEERRELIEERVEELEKELKKLE
B5: GBRAP_128_3394 (protein)
chain: SQEEKLKEALELIDKITEADLETARELARELMELFGELDLESAEKVADYLESKLPELSAEKLDVLADVLREERPKLDPEKAALVNGVEVEALNEAEEKEE
B6: GBRAP_52_6113 (protein)
chain: MRARARAFVDEVLALVRAGRLEEARARLREAAETWDDEELRVLVEAVAERARAAPPEDLDAVWRLAELAADELEAAGRDPVLADDLLARTAAALYERELA
B7: GBRAP_11_2756 (protein)
chain: KKEKLKEMAELAEKAAELVKKLLEEGVDNEELQEELEKVLKELKKLVKEYGDEADKKLVEIAEELWKKAKEDEENKEQYYKELLATLRVLSGDFLLEYEE
B8: GBRAP_53_6409 (protein)
chain: MEEKIKKLIKEIKEAAEKATKANEEEQLKLAKEIVELMKKAKEAGLSDEELTKLLIEIAKKLKEAGASDRTLVILAQGAVDLGLDEAAAEITELIVEDLE
B9: GBRAP_74_6547 (protein)
chain: NAELKEKIKEAEKAGDLKKVIELLKEAIENGDFENAKYALLALGKIIKENREKVTLEEAEAAAEAVAELLSAFPSEDFSDEAYEAIKTVLTLAVELEQKA
B10: GBRAP_9_7158 (protein)
chain: MDELVAKLREVIEDAFEEIKEVVPEEVKPIVEKLREEAEKRLEELEEDPEATPEELVEEAKRILREFRERMKKEVDEETAKIVDAIVDTAELEIEEIEEE
B11: GBRAP_52_6298 (protein)
chain: MEEEAKKIAEELVELQKKGDEEGLEKKVKELVEEKSEEFLKLVAEELAKMAAESDEEDIDIIFEVMELLADEMIEGGYDEAFAEDLLALVAKKGYENYLK
B12: GBRAP_160_4368 (protein)
chain: AAALKALAAEIAALRAEFEEEAKDLTPEEVRKLALGVLAEVAALVWENEAVSEETEDAIMAIIDAAEAELRANADATPEEIVAITTAALDQIIALVEAEA
B13: GBRAP_125_3132 (protein)
chain: HMEEILENLAIVAKALGLSDDDVEEAVKIAEKHGVKGTMYAILAALGYDEVADLVEKITEEEAIEVVKEVAEKIKKDPSLTPEEVVELIKKLLKEKIAAK
B14: GBRAP_166_4927 (protein)
chain: HMEEKVEEAEKRVREVIEKGKADPTKTKEQITVDVAYETAEILEEEDDEETKLAIVEKALKLAKEAGLDPRRLATLTASLAGFDDETREKIDKIVEKILK
B15: GBRAP_128_3401 (protein)
chain: SEEEKVEEAKKLIEAIVEADVEEARKLARELMELFGTLSLEAQKKVAEAIEAALPKLTAEKLDVLADVIREKMPEFDPEKQDILNDMEVAALNAAEEKEE
B16: GBRAP_43_5745 (protein)
chain: DKELVEGALDLAILMAEDPSIPEETKLKAAKAAFDLIADTGIKETERLIELVKAFAENSSLESAEKLLKHLKELAAKSEKVKETFDAAIEALEKEIEKKK
B17: GBRAP_184_5115 (protein)
chain: KILEFEIEAENLEELKKKLEEVKEEAKKEKATVLVIVKIKNLTPEMAKALIEKLAEIKKAGAKEVIALIESDNISDEVLDTIYEGAKKNGLKNVVIARKE
B18: GBRAP_52_6040 (protein)
chain: MRERMRRLAREIVELVRAGRLEEARERIRELVETLSLEELELLGEELAELAREAEPEDLDAVMEVALMLADELEKAGYPEVFADDLEARVARAAVENLER
B19: GBRAP_95_7023 (protein)
chain: EDDELALQSAQEVLEALLELGDEEAARRAARRAAELALKVPASAVLKDLSLEGRVAIVREAAENFSREDTERIAEKLIAVAEKEEDKEAIREALEKALAE
B20: GBRAP_128_3293 (protein)
chain: SAAALRAAYRARLEALLGLTPEELRAATLALIDEAVAQGLEAVELFVEALEELLPKFTVEQLEAIAEALDEARERVDPETAALLADAASDALLEAEEKEE
B21: GBRAP_128_3213 (protein)
chain: SVEEVREEVRRLLEEISEADEEEAEEIAEELAELVANSSVEEAEAAREVIEELAPELSEEELEILMEAFERQARKLSDERSLVLLDIAIILGSEIIEKEE
B22: GBRAP_52_6097 (protein)
chain: SEAEIRAYAEALVAAARAGDVDAATAILLEAIARFSDEEVLAMLDLAAQLMAQLPADERERATDVMIEALDRAADETGKEELMDIAEARVAAIAYQALQA
B23: GBRAP_122_2955 (protein)
chain: SKEEEVERLVEETVEAAKKGDFAATILEALKEAAERFDAESLIRLAERLAERARELGKEAEAALAFATAAQWLLEERPELAEAADRLLELADELLDLLEE
B24: GBRAP_18_5401 (protein)
chain: APSPFEQAWAALSEEAQDLVAKAIGDALSSEDDEERIDILVDTLVELAARLSPEEVYNAMYLLLSSVLSRMEEAREVADRFIARVPERRAEAERVLADLE
B25: GBRAP_39_5719 (protein)
chain: EEEEEAENIFSYYEAVGAKKMYERGISLDELFAELYARARELAADDPELAAALDELRALAEAAGDEAKLAAAGLMSRLVEGEPREEILADAEKLIAYLKS
B26: GBRAP_14_3804 (protein)
chain: SEEKKKAIEDTVEEAIELIKEILKDVPQEVREKVIELVEEAKKKIIEENLNPDEIDELTKETIKKVEEILKDVPQEVRDKVIAVIATEFGVLILEVEELE
B27: GBRAP_52_6184 (protein)
chain: MREELREKVLEILELVKEGKLEEARKLAKELVESISEEEAKLLVEVMAEVTRELPVEELDDAFKMAEIIAEEMEEAGFDEVLAEDLLAAVARAMYEKELA
B28: GBRAP_160_4501 (protein)
chain: MEKVEEAIKEIEEEAELAIEAMKEVSDEDAVKIFRAYAGDVIEYLREEAKISEETEEKLEEIEDELVEEMKSIKNLTDEQIEEIVERYREEFIELLKEEA
B29: GBRAP_160_4587 (protein)
chain: EESIKKLKEIVEEELEEAKEDIKGESAEQRATIVLGAGGEIAMELSEIPEASDELIDKVLEITDEAAEYILSNPNITDEELEKLIEEAEKKMKEAIKESM

target: GABARAP, O95166; test: median log2 fold change of GCK-ALFA target abundance (FLAG IP / Myc IP barcode read proportion) (log2 ratio); each designed protein is fused to an ALFA-tag nanobody in HEK293 cells to bring the named protein to FLAG-tagged glucokinase (GCK); Myc marks an untargeted standard; higher = target protein stabilised (more abundant); conditions: target protein: 3xFLAG-MCP-GCK-ALFA reporter; HEK293 landing pad (RPLP)
Method in brief: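 Binders fused to an ALFA nanobody were recombined as a library into HEK293 landing-pad cells, which were induced with 2 μg mL^−1 doxycycline and then transfected to express a FLAG-tagged target and a Myc-tagged standard. After 48 h, circular RNA barcodes recovered by anti-FLAG and anti-Myc immunoprecipitation of lysates were reverse transcribed, amplified and sequenced. Each binder's target abundance is the median log2 ratio of FLAG to Myc barcode read proportions, from barcodes present at ≥10^−7 in both replicates, binders carrying ≥3 barcodes per replicate, a 10^−6 pseudocount and pooled replicates.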

Sequence of GABARAP, O95166 (O95166 whole entry, the tested form may be a part): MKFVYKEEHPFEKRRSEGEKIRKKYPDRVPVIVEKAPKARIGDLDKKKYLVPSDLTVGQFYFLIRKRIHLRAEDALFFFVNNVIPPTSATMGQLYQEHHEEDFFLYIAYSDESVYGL

| Binder | median log2 fold change |
| --- | --- |
| B1 | 0.154 |
| B2 | 0.187 |
| B3 | 0.133 |
| B4 | -0.299 |
| B5 | 0.206 |
| B6 | -0.0387 |
| B7 | 0.0874 |
| B8 | -0.0147 |
| B9 | -0.0235 |
| B10 | 0.0143 |
| B11 | -0.352 |
| B12 | 0.0375 |
| B13 | -0.0148 |
| B14 | 0.388 |
| B15 | 0.0103 |
| B16 | 0.197 |
| B17 | 0.0258 |
| B18 | -0.365 |
| B19 | 0.302 |
| B20 | 0.0324 |
| B21 | -0.403 |
| B22 | -0.0573 |
| B23 | -0.119 |
| B24 | 0.00546 |
| B25 | 0.194 |
| B26 | 0.173 |
| B27 | -0.0301 |
| B28 | -0.0957 |
| B29 | -0.0805 |
